# Out of some 320,000 compounds screened, about 3,100 (0.97%) were called active. Inconclusive means that the source gave no clear call. Such entries were picked first, then a sample of the others.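 The calls were made as follows: active = mean replicate inhibition of at least 70% and a set share of replicates each scoring 70 or more; inconclusive = meets just one of the two criteria; inactive = fails both criteria.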
# Molecular target: Scavenger receptor class B member 1 (Mus musculus) (UniProt Q61009)
# Experiment: inhibitors of SR-BI mediated HDL lipid uptake, primary screen, ldlA[mSR-BI] cells, fluorescence, single point (AID 488896);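 also: 0% = median of neutral control wells and 100% = median of positive control wells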
# Conditions: ldlA[mSR-BI] CHO cells, DiI-HDL uptake fluorescence, 3 h; at 12.5 µM; hits give high values
# Chain of UniProt Q61009 (Q61009 whole entry, looked up): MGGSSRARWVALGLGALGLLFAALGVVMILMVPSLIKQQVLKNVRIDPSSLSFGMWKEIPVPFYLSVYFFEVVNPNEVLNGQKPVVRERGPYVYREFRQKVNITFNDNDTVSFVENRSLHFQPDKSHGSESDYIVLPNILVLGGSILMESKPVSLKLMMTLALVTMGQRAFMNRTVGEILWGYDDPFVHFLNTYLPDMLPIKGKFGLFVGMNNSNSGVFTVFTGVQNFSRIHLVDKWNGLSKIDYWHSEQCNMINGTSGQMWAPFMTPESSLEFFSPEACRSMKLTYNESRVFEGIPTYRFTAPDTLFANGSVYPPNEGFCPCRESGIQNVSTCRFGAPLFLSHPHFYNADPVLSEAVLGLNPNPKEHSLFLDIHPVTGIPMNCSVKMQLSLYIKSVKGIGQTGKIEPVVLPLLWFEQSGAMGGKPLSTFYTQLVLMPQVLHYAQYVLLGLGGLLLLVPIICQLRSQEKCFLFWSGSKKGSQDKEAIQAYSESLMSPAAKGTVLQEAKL
row,SMILES,inhibition
1,CC(C)C(=O)Nc1ccc(C(=O)N/N=C/C2CC3C=CC2C3)cc1 (stereo unspecified),inactive: -17.8%
2,COc1ccccc1C(=O)NC(=S)Nc1ccccc1N1CCCC1,active: 74.7%
3,O=c1[nH]c(=S)[nH]c(O)c1/C=C1\C=Nc2ccccc21,inactive: -12.1%
4,O=C(NNc1nc2ccc(Cl)cc2s1)c1cc(-c2cccs2)nc2ccccc12,active: 89.4%
5,COc1cc2sc3cc(NCc4ccc(C)o4)ccc3c(=O)c2cc1OC,active: 80%
6,COc1ccc(Cl)cc1NC(=O)CSc1nc(NS(=O)(=O)c2ccc(C)cc2)cc(=O)[nH]1,inactive: -2.09%
7,O=C(Nc1ccc(N2CCOCC2)cc1)c1cc2c(s1)CCCCC2,active: 87.8%
8,O=C(N/N=C/c1cc([N+](=O)[O-])ccc1N1CCCCCC1)c1ccccn1,active: 80.2%
9,N#Cc1ccc(CN2C=NS(=O)(=O)c3ccccc32)cc1,inactive: -10%
10,CCN(CC(=O)Nc1ccc(NC(C)=O)cc1)C(=O)/C=C/c1c(C)nn(-c2ccc(F)cc2)c1C,inconclusive: 70.2%
11,COc1ccc(Nc2oc(-c3ccc(Cl)cc3)nc2C#N)cc1,inconclusive: 71.4%
12,CN(c1cccc(NC(=O)c2ccc(N(C)S(=O)(=O)c3ccccc3)cc2)c1)S(C)(=O)=O,inconclusive: 70.7%
13,Brc1ccc(-c2csc(N/N=C/c3ccc4c(c3)OCO4)n2)cc1,active: 79.4%
14,CCCCNC(=S)N(C)/N=C/c1ccc(OCC(=O)Nc2ccc(OC)cc2)c(OC)c1,inconclusive: 70.7%
15,Cc1cc(C)c2c(c1)NC(c1cc3c(cc1Br)OCO3)C1CC=CC21 (stereo unspecified),inconclusive: 70%
16,COc1cc(SC)ccc1C(=O)Nc1ccc2c(c1)CCN2S(C)(=O)=O,inconclusive: 74%
17,CCN(CC)S(=O)(=O)c1cccc(NC(=O)c2ccc(-n3nc(C)cc3C)cc2)c1,inconclusive: 71.4%
18,COc1ccc(C)cc1COC(=O)c1[nH]c(C)c(C(C)=O)c1C,inconclusive: 71.3%
19,COCCOC(=O)c1[nH]c2c(c1C)C(=O)CC(c1ccco1)C2 (stereo unspecified),inconclusive: 71.7%
20,Cc1cc(C)cc(C(=O)N2CC(=O)Nc3ccccc32)c1,inconclusive: 70.2%
21,CCN(CC)S(=O)(=O)c1ccc(=O)[nH]c1,inactive: -2.25%
22,CCN(C(=O)COC(=O)/C=C/c1ccc(OC(F)F)c(OC)c1)C1CCS(=O)(=O)C1 (stereo unspecified),inconclusive: 72.3%

row,SMILES,inhibition
1,Cc1c(-c2ccccc2)nc2ccccc2c1C(=O)Oc1ccc([N+](=O)[O-])cc1,active: 87.6%
2,Cn1nc(C(F)(F)F)c2cc(C(=O)Nc3ccc(F)cc3F)sc21,inactive: 56.1%
3,CCCCOn1c(C)c(C(C)=O)c2c3no[n+]([O-])c3ccc21,active: 77.7%
4,Cc1ccc(C(=O)NNc2c3ccccc3nc3ccccc23)cc1,active: 96.7%
5,Cc1cccc(COc2ccccc2C(=O)OCC(=O)N(C)c2c(N)n(Cc3ccccc3)c(=O)[nH]c2=O)c1,active: 86.6%
6,O=C(c1ccccc1[N+](=O)[O-])N1CCCC(C(=O)N2CCCCCC2)C1 (stereo unspecified),inconclusive: 70.9%
7,CC1(C)Oc2ccc(C(=O)NNC(=O)Nc3ccccc3)cc2NC1=O,inactive: -10.3%
8,CC(=O)N1CCc2c(sc(NC(=O)c3ccc4c(c3)OCCO4)c2C#N)C1,inconclusive: 70%
9,COc1ccccc1NS(=O)(=O)c1cccc(C(=O)N/N=C/c2c(C)nn(-c3ccccc3)c2N2CCCC2)c1,inconclusive: 70.7%
10,COc1cc(-c2nc(-c3ccc(Br)o3)no2)cc(OC)c1OC,inconclusive: 71.3%
11,COc1cc(-c2nc(C)c(C(C)=O)n2O)ccc1OCC(=O)Nc1ccc(Cl)cc1,inconclusive: 70.7%
12,O=C(c1ccc(Br)cc1)c1cc([N+](=O)[O-])ccc1N1CCOCC1,inconclusive: 70.6%
13,CNC(=O)/C(C#N)=C/c1ccc(-c2ccccc2[N+](=O)[O-])o1,inactive: 29.2%
14,CCOC(=O)Cn1c(=NC(=O)c2cccs2)sc2cc(C(=O)OC)ccc21,inconclusive: 72.2%
15,NS(=O)(=O)c1ccc(N/N=C/c2ccc3c(c2)OCO3)c([N+](=O)[O-])c1,inconclusive: 70.5%
16,COc1ccc(OC)c(-c2cc(C(=O)Nc3sc4c(c3C#N)CCC(C)C4)c3ccccc3n2)c1 (stereo unspecified),inconclusive: 73.8%
17,c1ccc(COn2c(-c3ccccc3)nc3c2CCc2nonc2-3)cc1,inconclusive: 70.5%
18,CCCCCCOC1(c2ccccc2)OC(=O)c2ccccc21 (stereo unspecified),inactive: 7.25%
19,Cn1nccc1C(=O)N/N=C/c1c(O)ccc2ccccc12,active: 105%
20,COCCn1c(SCC(=O)Nc2cc(Cl)ccc2OC)nc2c(c1=O)SC(C)C2 (stereo unspecified),inconclusive: 70.2%
21,N#C/C(=C\c1ccc(O)c(O)c1)C(=O)NCCCc1ccccc1,inconclusive: 72%
22,CC1=C(C(=O)OC(C)C)C(c2cccc(F)c2)n2ncnc2N1 (stereo unspecified),inactive: -12.3%

row,SMILES,inhibition
1,CCCn1c(C)cc(/C=C(\C#N)C(=O)O)c1C,inactive: -5.7%
2,COc1cccc(N2CCN(c3cnc4ccccc4n3)CC2)c1,inconclusive: 70%
3,NC(=S)NN=C1CCCC(C(F)(F)F)C1 (stereo unspecified),inconclusive: 74%
4,NC(=S)N/N=C\c1ccc(-c2cccc(Cl)c2Cl)o1,active: 78.5%
5,CN(C)c1ccc(Nc2ncnc3ccc(Br)cc23)cc1,inactive: 25.3%
6,COc1ccc(-c2cc(C(=O)Nc3cc(C)on3)c3ccccc3n2)c(OC)c1,inconclusive: 70.8%
7,COc1ccccc1C(=O)Nc1ccc(-c2nnn(CC(=O)N3CCN(C(=O)c4ccco4)CC3)n2)cc1,inconclusive: 72.3%
8,COc1cccc(NC(=O)COc2cc(C)cc3oc(=O)cc(C)c23)c1,inconclusive: 71.1%
9,CN(C)S(=O)(=O)N1CCN(C(=O)N(c2ccccc2)c2ccccc2)CC1,inconclusive: 70.3%
10,CCOc1ccc(C(=O)Nc2nnc(C(C)C)s2)cc1OCC,inconclusive: 77.8%
11,COc1ccc(-c2sc3ccc(OC)cc3c2-c2ccc(O)cc2)cc1,inconclusive: 71.1%
12,C=CCn1c2ccccc2c(=O)c2cc(C#Cc3ccccn3)ccc21,inconclusive: 72%
13,COc1ccc(C(=O)Nc2ccc(NC(=O)c3ccccc3OC)nc2)cc1,active: 79.5%
14,O=C(OCCN1CCN(c2ncc(C(F)(F)F)cc2Cl)CC1)c1ccc(Cl)cc1,inactive: -29.4%
15,CCN(CC)P(=O)(Nc1ccccc1Br)c1ccc(N(C)C)cc1NC(=O)c1ccco1 (stereo unspecified),inconclusive: 73.7%
16,COC(=O)c1ccc(Cl)c(NC(=O)CN(c2ccc(OC)cc2)S(=O)(=O)c2ccccc2)c1,inconclusive: 71.6%
17,O=C(N/N=C/c1cn[nH]c1-c1ccc(Cl)cc1)c1ccc([N+](=O)[O-])cc1,active: 94.6%
18,O=C(Nc1cccc(Br)c1)c1ccc2c(c1)SC1=NS(=O)(=O)CCN12,inconclusive: 72.4%
19,CCOc1ccc2nc(NC(=O)/C=C/c3ccc4c(c3)OCO4)sc2c1,inconclusive: 70.4%
20,COc1cccc2c1C(=O)c1c(O)c3c(c(O)c1C2=O)C[C@@](O)(C(=O)CO)C[C@@H]3O[C@H]1C[C@H](N)[C@@H](O)[C@H](C)O1,inactive: -0.0415%
21,CCOc1cc(N2CCOCC2)c(OCC)cc1NC(=O)c1cc(C)cc(C)c1,inconclusive: 73.1%
22,Cc1cc(=O)oc2c3c(cc(OCC(=O)NCc4ccco4)c12)OC(C)(C)CC3,inconclusive: 70.1%

row,SMILES,inhibition
1,COc1ccc(-c2cc3cc(OC)c(OC)cc3c(C)n2)cc1,active: 80.1%
2,COc1ccc(NC(=O)COC(=O)C2CC2)c(OC)c1,inactive: -7.06%
3,CCOC(=O)c1c(NC(=O)c2ccc(C)cc2)sc2c1CC(C)(C)OC2,inactive: 66%
4,COc1ccc(/C=N/n2cc(-c3ccc(OC)cc3)nc2N)cc1,inactive: 28.9%
5,Cc1cccc(NC(=O)C2CCN(S(=O)(=O)c3ccc4c(c3)NC(=O)CO4)CC2)c1C,inactive: 30.4%
6,CCNc1ccc(C(=O)N/N=C/c2c(C)nn(-c3ccccc3)c2N2CCCC2)cc1[N+](=O)[O-],inconclusive: 72.1%
7,O=[N+]([O-])c1cccc(-c2ccc(/C=N/NC(=S)Nc3cccc(F)c3)o2)c1,inconclusive: 72.1%
8,O=C(Cc1cccs1)NCCSc1c(-c2ccc(Cl)cc2)[nH]c2ccccc12,inconclusive: 70.1%
9,Cc1cccc(N(CC(=O)N2CCc3ccccc3C2)S(C)(=O)=O)c1C,inactive: 21%
10,O=C(Nc1ccc(O)cc1)c1ccccc1OCc1ccccc1,inactive: 67.8%
11,Oc1ccc(-c2nc(-c3ccc(F)cc3)c(-c3ccncc3)[nH]2)cc1,active: 73.9%
12,O=C(c1ccc(-n2nc(C(F)(F)F)c3c2CCCC3)cc1)N1CCOCC1,active: 79.3%
13,COc1ccccc1NC(=O)c1cc2cc(Br)ccc2cc1O,inconclusive: 74.4%
14,CCCCCCSc1ccc(-c2nc3cc(C)ccn3c2NC2CCCCC2)cc1,inconclusive: 71.6%
15,COc1ccc(NC(=O)Cn2nnc(C(=O)NCCc3ccc(OC)c(OC)c3)c2N)c(OC)c1,inconclusive: 76%
16,Cc1ccc(S(=O)(=O)N2CCC(=O)N(C(COCc3cccc(C(F)(F)F)c3)Cc3ccccc3)CC2)cc1 (stereo unspecified),inactive: -23.8%
17,CC(C)Oc1ccc(-c2cc(=O)[nH]c(=O)[nH]2)cc1,inactive: -20.6%
18,COc1ccc(OC)c(NC(=O)/C=C/c2ccc(S(=O)(=O)N3CCOCC3)cc2)c1,inconclusive: 71.6%
19,Cc1cc(C(=O)CSc2nnnn2C)c(C)n1CCc1ccc(Cl)cc1,inconclusive: 70.1%
20,Cc1ccc(C(=O)Nc2ccc(Nc3ccccc3)cc2)cc1C,active: 99.4%

# From PubChem BioAssay AID488896 (Broad Institute, 2010)
